Consider 55 compounds from paper PMC4336329 (PLoS ONE, 2015).

The structures appear in SMILES notation. Out of some 310,000 compounds screened, about 2,200 (0.71%) showed an effect of 50% or more. The effect is printed as a negative number. The list shows a part of the results.

The target of this assay is human ether-à-go-go-related gene (hERG) potassium channel (human, UniProt Q12809). Description: primary screen, population patch clamp on CHO cells stably expressing hERG.
human ether-à-go-go-related gene (hERG) potassium channel, sequence (Q12809 whole entry, looked up): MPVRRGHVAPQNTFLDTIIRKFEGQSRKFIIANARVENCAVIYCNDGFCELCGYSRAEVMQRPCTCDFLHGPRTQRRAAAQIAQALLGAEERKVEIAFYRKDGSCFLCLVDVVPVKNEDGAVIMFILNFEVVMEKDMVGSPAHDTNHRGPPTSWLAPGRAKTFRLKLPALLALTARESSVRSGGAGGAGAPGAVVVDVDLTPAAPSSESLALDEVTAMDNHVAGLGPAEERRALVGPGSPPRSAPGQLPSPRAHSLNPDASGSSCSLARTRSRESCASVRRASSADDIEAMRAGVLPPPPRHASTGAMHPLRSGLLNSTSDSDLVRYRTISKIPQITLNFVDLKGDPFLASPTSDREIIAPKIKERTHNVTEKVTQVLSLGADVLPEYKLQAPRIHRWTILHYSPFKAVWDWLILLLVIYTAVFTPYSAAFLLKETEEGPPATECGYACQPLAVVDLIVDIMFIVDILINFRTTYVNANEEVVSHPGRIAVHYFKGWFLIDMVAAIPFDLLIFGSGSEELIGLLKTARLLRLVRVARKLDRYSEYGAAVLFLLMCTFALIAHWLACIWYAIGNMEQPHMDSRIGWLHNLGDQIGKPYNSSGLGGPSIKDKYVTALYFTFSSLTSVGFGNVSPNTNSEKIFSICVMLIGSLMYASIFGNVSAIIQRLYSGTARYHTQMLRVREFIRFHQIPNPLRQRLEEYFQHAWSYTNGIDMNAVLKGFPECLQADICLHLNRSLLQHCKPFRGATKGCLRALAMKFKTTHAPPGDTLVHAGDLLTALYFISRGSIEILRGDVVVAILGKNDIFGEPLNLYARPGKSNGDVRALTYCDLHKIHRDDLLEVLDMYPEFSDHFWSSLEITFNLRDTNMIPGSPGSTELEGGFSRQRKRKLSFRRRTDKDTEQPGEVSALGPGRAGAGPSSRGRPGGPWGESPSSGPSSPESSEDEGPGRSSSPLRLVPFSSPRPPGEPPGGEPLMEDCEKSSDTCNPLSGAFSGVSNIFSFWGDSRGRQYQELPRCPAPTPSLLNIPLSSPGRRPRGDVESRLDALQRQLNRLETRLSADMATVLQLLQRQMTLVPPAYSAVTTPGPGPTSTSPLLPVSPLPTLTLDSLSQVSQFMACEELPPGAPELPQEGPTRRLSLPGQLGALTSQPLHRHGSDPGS
Turning to `C/C(CC(=O)NCc1ccco1)=N\NC(=O)Cc1ccc(Cl)cc1`, the “hERG current change (%, negative = inhibition) at 1uM” value stood at 12.6%. For `Cc1cc(Cl)cc2c(N=Nc3ccccc3C(=O)O)c(O)[nH]c12`, the “hERG current change (%, negative = inhibition) at 1uM” value was determined as 17.4%. For the compound `CCNc1nc(N)nc(Oc2ccc(OCc3ccccc3)nn2)n1`, the “hERG current change (%, negative = inhibition) at 1uM” value came to 10.7%. Regarding `Cc1sc2ncnc(OCC(=O)Nc3ccc4c(c3)OCCO4)c2c1C`, the “hERG current change (%, negative = inhibition) at 1uM” value is recorded as 11%. The same measure for `COc1cccc(NC(=O)CN2CC(c3ccccc3)CC2=O)c1` (stereo not shown): 5.07%; for `COc1cccc(NC(=O)CN2CCN(c3nc(-c4cccc(OC)c4)cs3)CC2)c1`: 10.4%.

For the compound `Cc1ccc(C(=O)NC(C(=O)Nc2cccc(S(N)(=O)=O)c2)C(C)C)cc1` (stereo not shown), the “hERG current change (%, negative = inhibition) at 1uM” value is reported as 7.73%. For the compound `NC(N)=NCCCC(NC(=O)c1ccccc1)C(=O)Nc1ccc2ccccc2c1` (stereo not shown), the “hERG current change (%, negative = inhibition) at 1uM” value amounted to 18.6%. Regarding `COc1ccc(C(=O)N2CCN(c3c(C)cccc3C)CC2)cc1OC`, the “hERG current change (%, negative = inhibition) at 1uM” value is -15.3%.

In the case of `CCCOc1ccc(CN2CCOCC2)cc1OC.Cl`, the “hERG current change (%, negative = inhibition) at 1uM” value is on record as 8.36%. `CC(C)(C)OC(=O)N1CCC(CNC(=O)c2ccccc2)CC1`: the “hERG current change (%, negative = inhibition) at 1uM” value stood at 11.9%. The same measure for `Nc1c(C(=O)NC2CCCC2)c2nc3ccccc3nc2n1N`: 20%. In the case of `COc1cc2c(cc1OC)CN(C(=O)CCNS(=O)(=O)c1ccccc1F)CC2` it was 9.48%; in that of `Cc1ccc(C2(c3noc(CN4CCC(c5ccncc5)CC4)n3)CCCC2)cc1`, 8.2%; in that of `COCCCn1c(SCC(=O)NC2CCCCC2)nc2ccccc2c1=O`, 9.04%.

As to `CC(Sc1nnc(-c2ccccc2F)n1C1CC1)C(=O)NC(N)=O` (stereo not shown), the “hERG current change (%, negative = inhibition) at 1uM” value amounted to 14.6%.

Regarding `CN(c1ccccc1)c1nc(N)c(C#N)c(CC#N)c1C#N`, the “hERG current change (%, negative = inhibition) at 1uM” value is recorded as 10.8%. In the case of `CCOC(=O)N1CCN(C(=O)/C=C/c2ccc(C(C)(C)C)cc2)CC1` it was 9.05%; in that of `CCCCCCc1nnc(NC(=O)OCC)s1`, 0.51%; in that of `Cc1cc(NC(=O)CN2CCOCC2)n(-c2ccccc2)n1`, 11.6%. Take `CC(C(=O)Nc1ccccc1C(=O)N1CCOCC1)N(c1ccccc1)S(C)(=O)=O` (stereo not shown): the “hERG current change (%, negative = inhibition) at 1uM” value was 11.7%.

Take `COc1ccc(CNC(=O)CSc2nc(SC)ns2)cc1`: the “hERG current change (%, negative = inhibition) at 1uM” value is reported as 9.78%.

Take `COc1ccc(CN2CCCC(CO)(Cc3ccc(F)cc3)C2)cc1C` (stereo not shown): the “hERG current change (%, negative = inhibition) at 1uM” value is on record as 2.78%.

With `O=[N+]([O-])c1cccnc1SCc1ccccc1`, the “hERG current change (%, negative = inhibition) at 1uM” value came out at 11.7%. Consider `Cc1ccccc1CSc1nc2ccccc2c(=O)n1C`, for which the “hERG current change (%, negative = inhibition) at 1uM” value is 23.6%. In the case of `CC(=O)Nc1ccc(-c2nnc(SCC(=O)c3ccc4c(c3)Cc3ccccc3-4)n2C)cc1` it was 9.02%; in that of `O=C(NC(C(=O)N/N=C/c1c2ccccc2cc2ccccc12)c1n[nH]c(=O)c2ccccc12)c1ccccc1` (stereo not shown), 15.3%. The same measure for `N#Cc1ccc(NCCc2ccccn2)c([N+](=O)[O-])c1`: -33.6%; for `CCC1Sc2ccc(S(=O)(=O)CCC(=O)Nc3c(Cl)cc(OC)cc3OC)cc2NC1=O` (stereo not shown): 8.92%.

In the case of `CC(=O)c1ccc(NC(=O)CSc2nc(C3CC3)nc3ccccc23)cc1`, the “hERG current change (%, negative = inhibition) at 1uM” value was determined as 11.6%. On to `CC(=O)Nc1ccc2c(c1)NC(=O)CC2`, for which the “hERG current change (%, negative = inhibition) at 1uM” value came to 9.36%.

For `COc1ccc(CNC(=O)C2=CC(c3ccc(OC)c(OC)c3)=NS(=O)(=O)N2C)cc1`, the “hERG current change (%, negative = inhibition) at 1uM” value came to 1.34%. Turning to `COc1ccc(CNC(=O)CCC(=O)Nc2ccc(Cl)cc2)cc1`, the “hERG current change (%, negative = inhibition) at 1uM” value stood at 10.9%. In the case of `CC(=O)N1CCN(c2cc(N3CCc4ccccc4C3)c(F)cc2[N+](=O)[O-])CC1`, the “hERG current change (%, negative = inhibition) at 1uM” value came to 1.37%. Consider `CC(NC(=O)CN(C)CC(=O)Nc1ccc(Cl)c(C(F)(F)F)c1)c1ccccc1` (stereo not shown), for which the “hERG current change (%, negative = inhibition) at 1uM” value is given as 11.3%.

Regarding `COc1cc2c(cc1OC)C(COc1ccc3c(C)cc(=O)oc3c1)N(C(=O)c1ccco1)CC2` (stereo not shown), the “hERG current change (%, negative = inhibition) at 1uM” value amounted to 18.8%. For `CN1CCN(S(=O)(=O)c2cccc(C(=O)N(Cc3nnc(-c4ccc(Cl)cc4)o3)C3CC3)c2)CC1`, the “hERG current change (%, negative = inhibition) at 1uM” value is reported as -20%. In the case of `CCN(C(=O)COC(=O)c1cc(-c2cccc3ccccc23)nc2ccccc12)C1CCS(=O)(=O)C1` (stereo not shown) it was -3.46%; in that of `Cc1ccc(S(=O)(=O)NCCC(=O)NCc2cccnc2)cc1`, 10%. For the compound `CCOc1ccccc1-n1c(C)nc2cc(C(=O)O)ccc21`, the “hERG current change (%, negative = inhibition) at 1uM” value was 3.54%.

For the compound `O=C(NCc1ccccn1)c1ccc(Cl)c(S(=O)(=O)N2CCCCC2)c1`, the “hERG current change (%, negative = inhibition) at 1uM” value is reported as 17.1%.

With `Cc1cc(C)n(C(=O)c2nn(C)c(C)c2[N+](=O)[O-])n1`, the “hERG current change (%, negative = inhibition) at 1uM” value came out at 16.1%. `O=C(Nc1ccc(Cl)cc1)N1CCC(CO)(Cc2ccccc2)CC1`: the “hERG current change (%, negative = inhibition) at 1uM” value came to 4.29%. For the compound `Cc1onc(-c2ccccc2Cl)c1C(=O)N(Cc1nc(-c2ccccc2)no1)C1CCCCC1`, the “hERG current change (%, negative = inhibition) at 1uM” value was -7.05%. As for `O=C(Nc1ccc(-c2ccccc2)cc1)c1ccco1`, the “hERG current change (%, negative = inhibition) at 1uM” value is listed as 9.06%.

On to `CCOC(=O)NN1C(=O)c2ccccc2NC1c1ccccc1F` (stereo not shown), for which the “hERG current change (%, negative = inhibition) at 1uM” value was found to be 6.19%. The same measure for `CCC(CC)c1nc(NCCC(=O)O)c2ccccc2n1`: 11.6%; for `COc1ccc2occ(C(=O)c3coc4ccc(O)c(CN(C)C)c34)c2c1.Cl`: -29.5%.

In the case of `Nc1ccc(C(=O)Nc2ccccc2N)cc1`, the “hERG current change (%, negative = inhibition) at 1uM” value is 11.8%.

With `Cn1c(=O)c2c(nc(CN3CCN(C(=O)c4ccco4)CC3)n2CCCO)n(C)c1=O`, the “hERG current change (%, negative = inhibition) at 1uM” value came out at 2.81%. In the case of `Cc1nc(SCC(=O)NCc2ccc(F)cc2)c2c(=O)n(C)c(=O)n(C)c2n1` it was 15.3%. In the case of `NC(=O)CC[C@@H]1NC(=O)[C@H](CO)NC(=O)c2cc([N+](=O)[O-])cc(I)c2OCC[C@@H](C(N)=O)NC1=O` it was 14.9%.

In the case of `CC[C@@]12C(=O)N(c3cccc(F)c3)C(=O)N1[C@H](c1ccc(Br)cc1)[C@@H]1C(=O)N(C(C)(C)C)C(=O)[C@@H]12`, the “hERG current change (%, negative = inhibition) at 1uM” value is 7.06%. On to `Cc1ccc(-c2cc(-c3ccccc3)nc(Cl)n2)cc1`, for which the “hERG current change (%, negative = inhibition) at 1uM” value came to 1.09%. In the case of `Cc1ccc(C2CC(=O)N3CN(Cc4ccco4)CSC3=C2C#N)cc1` (stereo not shown), the “hERG current change (%, negative = inhibition) at 1uM” value worked out at 6.5%.
